Several values for one entry are separate records, joined by “and”; a condition that tells them apart may be missing. Equal values may be shown once. Inconclusive means that the source gave no clear call. Such entries were picked first, then a sample of the others. For some assays here: Where the call is inconclusive, the potency comes from a doubtful curve fit. Activity calls are given as the source filed them. Unless noted, calls follow the shape of the dose curve; as a rule, active = well fitted curve in the direction sought with a large enough effect in the repeat runs; inconclusive = weak or mixed curves; inactive = no such curve, though single readings can be large; an effect the other way counts as inactive or inconclusive.
Key:
[1] = qHTS assay for small molecules that induce genotoxicity in human embryonic kidney cells expressing luciferase-tagged ATAD5 (AID 651632); also: nearly all actives have a fitted effect of over 15% in size; also: potency is read from the fitted curve at half-maximal effect; as to activation: % is scaled to controls: 0 for no effect and ±100 for the full control effect
Method in brief: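 Quantitative HTS in HEK293T expressing luciferase-tagged ATAD5, whose levels rise upon DNA damage. Exposure ran 16 hr at 37C and 5% CO2, with luminescence read 30 min after Amplite addition at room temperature.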

[2] = qHTS assay for small molecules that induce genotoxicity in human embryonic kidney cells expressing luciferase-tagged ATAD5 - cell viability (AID 651634; calls by dose curve; also: nearly all actives have a fitted effect of over 25% in size; also: potency is read from the fitted curve at half-maximal effect)
Method in brief: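 After 15.5 hr incubation with compound at 37C, 5% CO2, HEK293T ATAD5-luciferase cells received CellTiter-Fluor reagent; fluorescence intensity was quantified following 30 min at 37C.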

[3] = qHTS assay to identify small molecule antagonists of the thyroid receptor (TR) signaling pathway (AID 743065); also: potency is read from the fitted curve at half-maximal effect; nearly all actives have a fitted effect of over 55% in size
Method in brief: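 Antagonism measured as loss of luciferase signal in GH3 cells stably carrying a TRE-luciferase reporter, co-treated with compound and T3 (1 nM final) for 23.5 h at 37 C. Viability was read in the same well by CellTiter-Fluor.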

[4] = target: Androgen receptor (Homo sapiens) (UniProt P10275); test: qHTS assay to identify small molecule antagonists of the androgen receptor (AR) signaling pathway (AID 743035; active = well fitted inhibition curve with a large enough effect in the signal ratio in the repeat runs, not every such curve was filed as active; inconclusive = weak or mixed curves, or effect the other way; inactive = no such curve, though single readings can be large or run the other way; the % refers to the signal ratio; also: potency is read from the fitted curve at half-maximal effect; as to activity change, negative = inhibition: % is scaled to controls: 0 for no effect and ±100 for the full control effect); settings: HEK293 AR-UAS-bla, R1881-stimulated, beta-lactamase FRET, 16 h; activity change, negative = inhibition: at 58.5 µM (top of the series) unless noted
Chain of UniProt P10275 (P10275 whole entry, looked up): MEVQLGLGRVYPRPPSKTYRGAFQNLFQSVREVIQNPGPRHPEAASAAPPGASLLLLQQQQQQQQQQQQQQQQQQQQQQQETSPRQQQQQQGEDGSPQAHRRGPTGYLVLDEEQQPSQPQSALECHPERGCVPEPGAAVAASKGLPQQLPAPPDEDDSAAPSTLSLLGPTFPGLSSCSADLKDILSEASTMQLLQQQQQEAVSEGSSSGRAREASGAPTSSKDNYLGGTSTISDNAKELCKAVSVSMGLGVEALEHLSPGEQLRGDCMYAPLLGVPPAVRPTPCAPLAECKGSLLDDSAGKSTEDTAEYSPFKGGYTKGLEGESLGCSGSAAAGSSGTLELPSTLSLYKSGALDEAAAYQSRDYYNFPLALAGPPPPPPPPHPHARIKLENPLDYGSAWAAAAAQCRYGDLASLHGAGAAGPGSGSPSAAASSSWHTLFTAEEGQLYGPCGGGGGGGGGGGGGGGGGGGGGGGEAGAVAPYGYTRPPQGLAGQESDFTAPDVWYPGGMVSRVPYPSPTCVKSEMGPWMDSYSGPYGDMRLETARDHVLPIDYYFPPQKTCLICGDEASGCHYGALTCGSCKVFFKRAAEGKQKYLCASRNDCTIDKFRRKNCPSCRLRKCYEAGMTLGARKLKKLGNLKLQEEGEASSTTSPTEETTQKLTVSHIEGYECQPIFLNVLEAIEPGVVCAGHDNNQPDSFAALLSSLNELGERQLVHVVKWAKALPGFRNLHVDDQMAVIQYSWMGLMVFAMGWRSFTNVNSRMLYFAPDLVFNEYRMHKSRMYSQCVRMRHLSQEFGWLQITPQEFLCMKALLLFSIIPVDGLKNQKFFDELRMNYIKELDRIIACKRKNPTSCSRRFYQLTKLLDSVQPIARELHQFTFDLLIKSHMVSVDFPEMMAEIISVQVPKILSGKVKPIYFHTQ
Method in brief: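 Quantitative HTS of the Tox21 10K library used HEK293 AR-UAS-bla cells stimulated with R1881 alongside compound for 16 h at 37C, followed by beta-lactamase FRET detection (LiveBLAzer B/G, 2 h, RT).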

[5] = target: Androgen receptor (Homo sapiens) (UniProt P10275); test: qHTS assay to identify small molecule agonists of the androgen receptor (AR) signaling pathway (AID 743036; active = well fitted activation curve with a large enough effect in the signal ratio in the repeat runs, with a control signal flat, not every such curve was filed as active; inconclusive = weak or mixed curves, or effect the other way; inactive = no such curve, though single readings can be large or run the other way; the % refers to the signal ratio; also: potency is read from the fitted curve at half-maximal effect); settings: HEK293 AR-UAS-bla GripTite, beta-lactamase FRET ratio, 16 h; activation: at 62.4 µM (top of the series) unless noted
Method in brief: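 Quantitative HTS of the Tox21 10K library in HEK293 cells bearing a stably integrated UAS-controlled beta-lactamase reporter. Compound exposure lasted 16 h at 37C. Reporter activity was detected by FRET substrate fluorescence after 2 h at room temperature.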

[6] = target: Estrogen receptor (Homo sapiens) (UniProt P03372); test: qHTS assay to identify small molecule agonists of the estrogen receptor alpha (ER-alpha) signaling pathway (AID 743075; calls by dose curve;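 also: HEK293 GripTite cells with ER-alpha and UAS-driven beta-lactamase reporter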; also: potency is read from the fitted curve at half-maximal effect; as to activation: % is scaled to controls: 0 for no effect and ±100 for the full control effect); settings: HEK293 ER-alpha-UAS-bla, beta-lactamase FRET ratio, 18 h; activation: at 70.1 µM (top of the series)
Chain of UniProt P03372 (P03372 whole entry, looked up): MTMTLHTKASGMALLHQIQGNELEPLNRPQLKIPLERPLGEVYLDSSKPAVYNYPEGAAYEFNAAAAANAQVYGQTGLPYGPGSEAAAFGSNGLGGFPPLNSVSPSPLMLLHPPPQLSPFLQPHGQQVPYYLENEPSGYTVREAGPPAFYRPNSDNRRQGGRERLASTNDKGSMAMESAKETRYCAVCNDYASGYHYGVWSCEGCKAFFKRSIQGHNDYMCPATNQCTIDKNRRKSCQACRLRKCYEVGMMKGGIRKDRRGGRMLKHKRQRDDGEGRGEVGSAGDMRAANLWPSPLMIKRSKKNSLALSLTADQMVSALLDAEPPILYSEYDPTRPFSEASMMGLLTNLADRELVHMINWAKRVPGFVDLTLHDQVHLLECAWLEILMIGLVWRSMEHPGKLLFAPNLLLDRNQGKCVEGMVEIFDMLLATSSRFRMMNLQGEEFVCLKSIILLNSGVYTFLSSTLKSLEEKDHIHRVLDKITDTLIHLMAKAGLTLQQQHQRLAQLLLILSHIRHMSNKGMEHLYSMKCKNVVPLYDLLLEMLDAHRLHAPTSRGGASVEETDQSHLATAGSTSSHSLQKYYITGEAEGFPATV

[7] = target: Aromatase (Homo sapiens) (UniProt P11511); test: qHTS assay to identify aromatase inhibitors (AID 743083); also: nearly all actives have a fitted effect of over 55% in size; also: potency is read from the fitted curve at half-maximal effect; as to activity, negative = inhibition: % is scaled to controls: 0 for no effect and ±100 for the full control effect
Chain of UniProt P11511 (P11511 whole entry, looked up): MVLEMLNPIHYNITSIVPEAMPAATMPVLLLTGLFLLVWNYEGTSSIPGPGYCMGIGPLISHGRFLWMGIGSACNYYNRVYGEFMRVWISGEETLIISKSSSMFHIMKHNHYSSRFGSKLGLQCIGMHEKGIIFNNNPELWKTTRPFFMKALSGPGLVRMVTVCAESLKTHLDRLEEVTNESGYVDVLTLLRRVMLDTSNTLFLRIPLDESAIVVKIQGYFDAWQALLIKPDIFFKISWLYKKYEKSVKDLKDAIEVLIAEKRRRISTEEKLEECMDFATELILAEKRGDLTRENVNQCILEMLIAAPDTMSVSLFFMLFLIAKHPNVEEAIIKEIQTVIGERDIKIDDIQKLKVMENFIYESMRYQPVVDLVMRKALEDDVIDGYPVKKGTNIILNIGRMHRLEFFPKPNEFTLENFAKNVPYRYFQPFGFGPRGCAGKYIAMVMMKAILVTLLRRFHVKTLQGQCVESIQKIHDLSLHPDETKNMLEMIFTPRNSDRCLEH

[8] = qHTS assay to identify small molecule that activate the aryl hydrocarbon receptor (AhR) signaling pathway - cell viability counter screen (AID 743086); also: nearly all actives have a fitted effect of over 45% in size; also: potency is read from the fitted curve at half-maximal effect
Method in brief: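 Cytotoxicity counter screen: CellTiter-Fluor signal (30 min, 37 C) in 4000 HepG2 cells/well carrying the DRE-luciferase reporter, following 24 h compound exposure at 37 C.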

[9] = target: Aryl hydrocarbon receptor (Homo sapiens) (UniProt P35869); test: qHTS assay to identify small molecule that activate the aryl hydrocarbon receptor (AhR) signaling pathway (AID 743085); also: potency is read from the fitted curve at half-maximal effect; nearly all actives have a fitted effect of over 15% in size
Chain of UniProt P35869 (P35869 whole entry, looked up): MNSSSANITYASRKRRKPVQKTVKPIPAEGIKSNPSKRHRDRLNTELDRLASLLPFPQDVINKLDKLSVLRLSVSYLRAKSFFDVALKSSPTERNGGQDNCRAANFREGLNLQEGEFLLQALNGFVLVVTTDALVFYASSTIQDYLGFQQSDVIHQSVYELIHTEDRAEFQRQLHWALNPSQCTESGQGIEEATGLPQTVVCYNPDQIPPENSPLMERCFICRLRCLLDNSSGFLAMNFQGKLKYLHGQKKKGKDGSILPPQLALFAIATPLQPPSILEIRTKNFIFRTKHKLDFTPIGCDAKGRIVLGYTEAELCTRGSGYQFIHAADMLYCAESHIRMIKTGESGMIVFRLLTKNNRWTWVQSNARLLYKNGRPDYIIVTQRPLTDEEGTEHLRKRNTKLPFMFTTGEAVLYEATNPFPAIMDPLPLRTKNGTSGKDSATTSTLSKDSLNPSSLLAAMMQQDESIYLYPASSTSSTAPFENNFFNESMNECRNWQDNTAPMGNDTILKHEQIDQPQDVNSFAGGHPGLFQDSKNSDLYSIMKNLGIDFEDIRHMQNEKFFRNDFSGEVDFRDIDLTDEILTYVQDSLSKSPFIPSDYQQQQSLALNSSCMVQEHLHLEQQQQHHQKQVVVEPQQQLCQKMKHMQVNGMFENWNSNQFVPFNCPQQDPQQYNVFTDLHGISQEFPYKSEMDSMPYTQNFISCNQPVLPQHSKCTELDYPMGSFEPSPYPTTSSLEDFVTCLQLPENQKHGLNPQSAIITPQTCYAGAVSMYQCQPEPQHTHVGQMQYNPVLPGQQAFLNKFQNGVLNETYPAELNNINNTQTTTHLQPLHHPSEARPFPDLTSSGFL
Method in brief: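 Compounds were tested in HepG2 hepatocellular carcinoma cells harbouring a stably integrated luciferase gene under control of 20 DREs. Increased reporter signal after 24 h treatment at 37C was taken as AhR activation.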

[10] = qHTS assay to test for compound auto fluorescence at 460 nm (blue) in HEK293 cells (AID 720678); also: potency is read from the fitted curve at half-maximal effect
Method in brief: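 Blue-channel (Ex/Em 405/460 nm) intensity measured in HEK293 cultures after overnight compound exposure at 37C; signal expressed relative to triamterene. Cells plated 2,000 per well in 10% dialyzed FBS medium and allowed 4-5 hr to attach.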

[11] = qHTS assay to test for compound auto fluorescence at 460 nm (blue) in HEK293 cell free culture (AID 720681); also: potency is read from the fitted curve at half-maximal effect
Method in brief: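 Blue fluorescence (Ex 405/Em 460 nm, triamterene-equivalent) was read immediately after pin transfer of compound or DMSO into medium (DMEM, 10% FBS) without cells.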

[12] = qHTS assay to test for compound auto fluorescence at 460 nm (blue) in HepG2 cell free culture (AID 720685); also: potency is read from the fitted curve at half-maximal effect
Method in brief: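 Cell-free plates of MEM plus 10% FBS received 23 nL compound or DMSO vehicle; blue-channel (405/460 nm) intensity scored against triamterene as reference fluorophore.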

[13] = qHTS assay to test for compound auto fluorescence at 460 nm (blue) in HepG2 cells (AID 720687); also: potency is read from the fitted curve at half-maximal effect
Method in brief: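 Blue-channel autofluorescence (Ex/Em 405/460 nm, triamterene-equivalent) was measured after 1 hr compound exposure at 37 C, 5% CO2. Cells were HepG2, plated overnight at 37 C in MEM plus 10% FBS.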

[14] = qHTS assay for small molecule agonists of the p53 signaling pathway - cell viability (AID 651633; calls by dose curve;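 also: p53RE-bla HCT reporter cells with a stable beta-lactamase p53 reporter; % is scaled to controls: 0 for no effect and ±100 for the full control effect; nearly all actives have a fitted effect of over 30% in size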)
Method in brief: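 Viability counter-read: CellTiter-Glo luminescence (30 min, room temperature) in the same p53RE-bla plates. These plates had been exposed to compounds for 16 h at 37 C.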

[15] = target: Androgen receptor (Homo sapiens) (UniProt P10275); test: qHTS assay to identify small molecule antagonists of the androgen receptor (AR) signaling pathway using the MDA cell line (AID 743042; also: potency is read from the fitted curve at half-maximal effect; nearly all actives have a fitted effect of over 55% in size)
Method in brief: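 Antagonist mode: compounds plus R1881 agonist added to MDA-kb2 AR-luc cells, incubated 16 h at 37C. Luciferase reporter luminescence quantified, with multiplexed CellTiter-Fluor readout for cell viability.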

[16] = target: Peroxisome proliferator-activated receptor gamma (Homo sapiens) (UniProt P37231); test: qHTS assay to identify small molecule antagonists of the peroxisome proliferator-activated receptor gamma (PPARg) signaling pathway (AID 743191; calls by dose curve; also: % is scaled to controls: 0 for no effect and ±100 for the full control effect; nearly all actives have a fitted effect of over 30% in size); settings: HEK293H PPARg-UAS-bla, beta-lactamase ratio, antagonist, 17 h; ratio activity, negative = inhibition: at 62.6 µM (top of the series) unless noted
Chain of UniProt P37231 (P37231 whole entry, looked up): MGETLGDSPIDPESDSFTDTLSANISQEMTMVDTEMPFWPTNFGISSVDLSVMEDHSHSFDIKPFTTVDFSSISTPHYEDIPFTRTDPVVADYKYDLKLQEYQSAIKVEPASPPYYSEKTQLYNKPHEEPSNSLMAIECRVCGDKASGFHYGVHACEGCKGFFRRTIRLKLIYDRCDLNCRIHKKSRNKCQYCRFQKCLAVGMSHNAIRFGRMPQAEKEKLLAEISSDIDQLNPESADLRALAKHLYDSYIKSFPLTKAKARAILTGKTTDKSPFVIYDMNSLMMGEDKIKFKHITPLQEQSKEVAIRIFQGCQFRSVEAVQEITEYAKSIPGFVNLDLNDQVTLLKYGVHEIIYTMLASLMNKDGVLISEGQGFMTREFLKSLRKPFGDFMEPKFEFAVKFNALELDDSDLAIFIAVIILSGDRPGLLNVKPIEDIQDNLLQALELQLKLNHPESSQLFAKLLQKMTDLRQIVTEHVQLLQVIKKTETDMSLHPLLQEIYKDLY
Method in brief: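 Beta-lactamase reporter under UAS control in HEK293H PPARg-bla cells; compound treatment 17 h at 37C. Read-out: fluorescence intensity after 1 h room-temperature incubation with LiveBLAzer B/G FRET substrate.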

[17] = target: Cytochrome P450 2C19 (Homo sapiens) (UniProt P33261); test: Cytochrome P450 Family 2 Subfamily C Member 19 (CYP2C19) small molecule antagonists: luciferase reporter qHTS assay (AID 1671197); also: potency is read from the fitted curve at half-maximal effect; nearly all actives have a fitted effect of over 65% in size
Chain of UniProt P33261 (P33261 whole entry, looked up): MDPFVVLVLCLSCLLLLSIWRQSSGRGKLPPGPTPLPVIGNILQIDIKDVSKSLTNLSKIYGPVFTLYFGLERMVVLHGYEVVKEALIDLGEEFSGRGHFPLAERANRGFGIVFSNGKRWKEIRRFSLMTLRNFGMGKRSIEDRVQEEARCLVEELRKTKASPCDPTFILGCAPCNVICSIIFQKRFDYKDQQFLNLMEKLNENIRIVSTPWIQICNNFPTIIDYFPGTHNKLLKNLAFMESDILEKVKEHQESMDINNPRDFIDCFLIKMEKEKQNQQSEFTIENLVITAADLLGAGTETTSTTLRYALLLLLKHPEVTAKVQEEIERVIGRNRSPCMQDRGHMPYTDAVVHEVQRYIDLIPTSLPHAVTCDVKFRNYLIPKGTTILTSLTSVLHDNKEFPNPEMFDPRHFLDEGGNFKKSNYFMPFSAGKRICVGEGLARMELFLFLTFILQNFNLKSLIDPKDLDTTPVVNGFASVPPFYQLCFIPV
Method in brief: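 Luminescent readout of CYP2C19 activity: luciferin product detected 20 min after adding detection reagent. Before that, compound and enzyme-substrate mix preincubated 10 min at room temperature; NADPH-regenerating system started a 1 h, 37C reaction. Ketoconazole as positive control.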
Tags tell the direction and shape of the fitted curve or compound fluorescence and quenching.

## CC(=C\c1ccccc1)/C=C1/SC(=S)N(CC(=O)O)C1=O
[1]
  Potency: inconclusive: 33.5 µM [activator, partial curve, poor fit]
[2]
  Potency: active: 21.1 µM
[3]
  Potency: inconclusive: 29.8 µM [inhibitor, partial curve]

## CCN(CC)Cc1cc(Nc2ccnc3cc(Cl)ccc23)ccc1O
[2]
  Potency: inconclusive: 12.7 µM [falling, single point]

## CO[C@H]1C[C@@H]2CC[C@@H](C)[C@@](O)(O2)C(=O)C(=O)N2CCCC[C@H]2C(=O)O[C@H]([C@H](C)C[C@@H]2CC[C@@H](OCCO)[C@H](OC)C2)CC(=O)[C@H](C)/C=C(\C)[C@@H](O)[C@@H](OC)C(=O)[C@H](C)C[C@H](C)/C=C/C=C/C=C/1C
[2]
  Potency: active: 29.8 µM
[4]
  Potency: inconclusive: 23.9 µM
[5]
  Potency: inconclusive: 16.9 µM [rising, partial curve]
[6]
  Potency: inconclusive: 8.49 µM [fluorescent]
[7]
  Potency: inconclusive: 0.0266 µM [inhibitor, full curve]
[8]
  Potency: active: 11.9 µM

## CCN(CC)CCOc1ccc2nc(N(C)C)sc2c1
[2]
  Potency: inactive
[9]
  Potency: inconclusive: 26.6 µM [activator, partial curve]
[8]
  Potency: inactive

## CC[C@H](C)[C@H]1O[C@]2(CC[C@@H]1C)C[C@@H]1C[C@@H](C/C=C(\C)[C@@H](O[C@H]3C[C@H](OC)[C@@H](O[C@H]4C[C@H](OC)[C@@H](O)[C@H](C)O4)[C@H](C)O3)[C@@H](C)/C=C/C=C3\CO[C@@H]4[C@H](O)C(C)=C[C@@H](C(=O)O1)[C@]34O)O2
[4]
  Potency: inactive
[5]
  Potency: inconclusive: 30.1 µM [falling, partial curve, poor fit]
[6]
  Potency: inconclusive: 21.3 µM [falling, partial curve]

## CCN(CC)CCC(=O)N1c2ccccc2Sc2ccc(Cl)cc21
[6]
  Potency: inactive
[7]
  Potency: inactive
[8]
  Potency: inconclusive: 33.5 µM [falling, single point]

## CC1CC(OC(=O)C(O)c2ccccc2)CC(C)(C)C1 (centres undefined)
[3]
  Potency: inconclusive: 33.5 µM [inhibitor]

## CCN1\C(=C/C=C/C=C/c2sc3ccccc3[n+]2CC)Sc2ccccc21
[6]
  Potency: inconclusive: 16.9 µM [cytotoxic, partial curve]
[9]
  Potency: inconclusive: 11.9 µM [activator, partial curve, poor fit]
[8]
  Potency: active: 11.9 µM and active: 23.7 µM

## Cn1c(O)c(N=NC(N)=S)c2ccccc21
[7]
  Potency: inconclusive: 33.5 µM [inhibitor, single point]
[9]
  Potency: active: 1.06 µM
[8]
  Potency: active: 2.98 µM

## COC(=O)[C@H]1[C@H]2C[C@@H]3c4[nH]c5cc(OC)ccc5c4CCN3C[C@H]2C[C@H](OC)[C@@H]1OC
[10]
  Potency: inconclusive: 12.6 µM [fluorescent, partial curve, poor fit]
[11]
  Potency: inconclusive: 15.8 µM [rising, partial curve, poor fit]
[12]
  Potency: inconclusive: 14.1 µM [fluorescent, partial curve, poor fit]
[13]
  Potency: inconclusive: 15.8 µM [fluorescent, partial curve, poor fit]
[9]
  Potency: inconclusive: 33.5 µM [activator, single point]

## CN[C@H]1CCc2cc(OC)c(OC)c(OC)c2-c2ccc(OC)c(=O)cc21
[5]
  Potency: inconclusive: 0.107 µM [falling, partial curve, poor fit]
[6]
  Potency: inconclusive: 0.213 µM [falling, full curve]
[9]
  Potency: inconclusive: 4.73 µM [activator, full curve, poor fit]
[8]
  Potency: inconclusive: 0.668 µM [falling, full curve, poor fit]

## O=C(NOC[C@H](O)CO)c1ccc(F)c(F)c1Nc1ccc(I)cc1F
[1]
  Potency: inactive
[14]
  Potency: inactive
[15]
  Potency: inconclusive: 2.11 µM [inhibitor, full curve]
[9]
  Potency: inconclusive: 5.31 µM [activator, full curve, poor fit]

## C=CCNCC=C
[16]
  Potency: inactive
[17]
  Potency: active: 39.8 µM and inconclusive: 71 µM [inhibitor, single point]

## Cc1cc(C)c(NC(=O)C[C@H](CC(=O)O)c2cccc3ccccc23)c(C(=O)N2CCC3(CCCC3)CC2)c1
[4]
  activity change, negative = inhibition: inconclusive: -33.4%

## C[Se]CC[C@H](N)C(=O)O
[6]
  Potency: inactive
[8]
  Potency: inconclusive: 33.5 µM [rising, partial curve, poor fit]

From PubChem BioAssay (Tox21)
